Test results from the supplement of paper PMC8728848.
The list shows a part of the results.

Experiments:
Assay in all cases: glycan array binding signal (z-score within array); higher = stronger binding
Conditions in all cases: glycan notation: IUPAC condensed, linker removed
[1] = molecular target: Fuc(a1-2)Gal
In short: (§1)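 Glycan array data came from 3228 arrays in the Consortium for Functional Glycomics database, and only arrays with an available protein sequence were kept. Glycan names were put into IUPAC-condensed notation, and columns mapping to the same glycan were averaged. The binding signal is a within-array Z-score, averaged across arrays of one protein sequence run at different concentrations or buffers and across linkers. A negative Z-score can be read as non-binding.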

[2] = molecular target: Fuc(a1-2)Gal(b1-3)GalNAc
In short: as §1

[3] = molecular target: Fuc(a1-2)Gal(b1-3)GalNAc(a1-3)[Fuc(a1-2)]Gal(b1-4)Glc
In short: as §1

[4] = molecular target: Fuc(a1-2)Gal(b1-3)GalNAc(a1-3)[Fuc(a1-2)]Gal(b1-4)GlcNAc
In short: as §1

[5] = molecular target: Fuc(a1-2)Gal(b1-3)GalNAc(b1-3)Gal
In short: as §1

[6] = molecular target: Fuc(a1-2)Gal(b1-3)GalNAc(b1-3)Gal(a1-4)Gal(b1-4)Glc
In short: as §1

[7] = molecular target: Fuc(a1-2)Gal(b1-3)GalNAc(b1-4)[Neu5Ac(a2-3)]Gal(b1-4)Glc
In short: as §1

[8] = molecular target: Fuc(a1-2)Gal(b1-3)GlcNAc
In short: as §1

[9] = molecular target: Fuc(a1-2)Gal(b1-3)GlcNAc(b1-2)Man(a1-3)[Fuc(a1-2)Gal(b1-3)GlcNAc(b1-2)Man(a1-6)]Man(b1-4)GlcNAc(b1-4)GlcNAc
In short: as §1

[10] = molecular target: Fuc(a1-2)Gal(b1-3)GlcNAc(b1-2)Man(a1-3)[Fuc(a1-2)Gal(b1-3)GlcNAc(b1-2)Man(a1-6)]Man(b1-4)GlcNAc(b1-4)[Fuc(a1-6)]GlcNAc
In short: as §1

[11] = molecular target: Fuc(a1-2)Gal(b1-3)GlcNAc(b1-3)Gal(b1-4)Glc
In short: as §1

[12] = molecular target: Fuc(a1-2)Gal(b1-3)GlcNAc(b1-3)GalNAc
In short: as §1

[13] = molecular target: Fuc(a1-2)Gal(b1-3)GlcNAc(b1-3)[Fuc(a1-2)Gal(b1-3)GlcNAc(b1-6)]GalNAc
In short: as §1

[14] = molecular target: Fuc(a1-2)Gal(b1-3)GlcNAc(b1-3)[Gal(b1-4)GlcNAc(b1-6)]Gal(b1-4)Glc
In short: as §1

[15] = molecular target: Fuc(a1-2)Gal(b1-3)GlcNAc(b1-3)[Neu5Ac(a2-6)Gal(b1-4)GlcNAc(b1-6)]Gal(b1-4)Glc
In short: as §1

[16] = molecular target: Fuc(a1-2)Gal(b1-3)GlcNAc6S
In short: as §1

[17] = molecular target: Fuc(a1-2)Gal(b1-3)[Fuc(a1-4)]GlcNAc
In short: as §1

[18] = molecular target: Fuc(a1-2)Gal(b1-3)[Fuc(a1-4)]GlcNAc(b1-2)Man(a1-3)[Fuc(a1-2)Gal(b1-3)[Fuc(a1-4)]GlcNAc(b1-2)Man(a1-3)]Man(b1-4)GlcNAc(b1-4)GlcNAc
In short: as §1

[19] = molecular target: Fuc(a1-2)Gal(b1-3)[Fuc(a1-4)]GlcNAc(b1-2)Man(a1-3)[Fuc(a1-2)Gal(b1-3)[Fuc(a1-4)]GlcNAc(b1-2)Man(a1-6)]Man(b1-4)GlcNAc(b1-4)[Fuc(a1-6)]GlcNAc(b1-4)[Fuc(a1-6)]GlcNAc
In short: as §1

[20] = molecular target: Fuc(a1-2)Gal(b1-3)[Fuc(a1-4)]GlcNAc(b1-3)[Fuc(a1-3)[Gal(b1-4)]GlcNAc(b1-6)]Gal(b1-4)Glc
In short: as §1

[21] = molecular target: Fuc(a1-2)Gal(b1-3)[Fuc(a1-4)]GlcNAc(b1-3)[Gal(b1-4)GlcNAc(b1-6)]Gal(b1-4)Glc
In short: as §1

[22] = molecular target: Fuc(a1-2)Gal(b1-4)Glc
In short: as §1

[23] = molecular target: Fuc(a1-2)Gal(b1-4)Glc6S
In short: as §1

[24] = molecular target: Fuc(a1-2)Gal(b1-4)GlcNAc
In short: as §1

[25] = molecular target: Fuc(a1-2)Gal(b1-4)GlcNAc(b1-2)Man
In short: as §1

[26] = molecular target: Fuc(a1-2)Gal(b1-4)GlcNAc(b1-2)Man(a1-3)[Fuc(a1-2)Gal(b1-4)GlcNAc(b1-2)Man(a1-6)]Man(b1-4)GlcNAc(b1-4)GlcNAc
In short: as §1

[27] = molecular target: Fuc(a1-2)Gal(b1-4)GlcNAc(b1-2)Man(a1-3)[Fuc(a1-2)Gal(b1-4)GlcNAc(b1-2)Man(a1-6)]Man(b1-4)GlcNAc(b1-4)[Fuc(a1-6)]GlcNAc
In short: as §1

[28] = molecular target: Fuc(a1-2)Gal(b1-4)GlcNAc(b1-2)[Fuc(a1-2)Gal(b1-4)GlcNAc(b1-4)]Man(a1-3)[Fuc(a1-2)Gal(b1-4)GlcNAc(b1-2)Man(a1-6)]Man(b1-4)GlcNAc(b1-4)GlcNAc
In short: as §1

[29] = molecular target: Fuc(a1-2)Gal(b1-4)GlcNAc(b1-3)Gal(b1-4)GlcNAc
In short: as §1

[30] = molecular target: Fuc(a1-2)Gal(b1-4)GlcNAc(b1-3)Gal(b1-4)GlcNAc(b1-2)Man(a1-3)[Fuc(a1-2)Gal(b1-4)GlcNAc(b1-3)Gal(b1-4)GlcNAc(b1-2)Man(a1-6)]Man(b1-4)GlcNAc(b1-4)GlcNAc
In short: as §1

B1: PX14375F-bfa-539-21-539 (Bacteroides fragilis) (protein)
chain: EDFLQKDPPSSPSQSVFWQKKSDFESALAGTYSVMYSGVFSQIMPCLDGLTDNAIVQHSEGTYGWAKTIAQGDLTPNQGGFVTDIYGNCYKGIARVHILMEQLDQYTGSDISADEKKFMLAQCKALRGYFYSWLYQCYKEVPVVTQSLDLNTMYQPKATRAEVLNRVMTDYDEAISELPDKLYSDSQTSGRFTVSAVKALKARILLFDAYDSNGKAISSKMEEVLTLLQSIKGYSLAARVRDNFISEKQLASPEIMFSVRFLRPNLTHSMDLYYGAWAVLDPTRNMVDAFECTDGKPWGESPLTVRPDESILYGNDDALKKAERAKMFMNRDRRLYESVNHSMMANFVDDGFKDEEVQVNESNNKGPTGFSALKYVQPTDVTPGYSTVSDADIVVLRYAHVLLMIAEAENEAHGATTTALNAINEVRTRSGQPAIEAGISQDDLRERIRNEWRIETCFEGLRYFQLKRWKLMDKRVNGVEDPAYPGYIKVYKPAFEFFPIPQSEIDKAGGVLKQDPAYE
With B1 the “glycan array binding signal (z-score)” value [1] was -0.47, the “glycan array binding signal (z-score)” value [2] was -0.358 and the “glycan array binding signal (z-score)” value [3] was 0.852. The “glycan array binding signal (z-score)” value [4] was -0.227, the “glycan array binding signal (z-score)” value [5] was -0.131 and the “glycan array binding signal (z-score)” value [6] was 1.21. For the same binder, the “glycan array binding signal (z-score)” value [7] was -0.373, the “glycan array binding signal (z-score)” value [8] was 0.011 and the “glycan array binding signal (z-score)” value [9] was 0.619. The “glycan array binding signal (z-score)” value [10] was 0.043, the “glycan array binding signal (z-score)” value [11] was 0.087 and the “glycan array binding signal (z-score)” value [12] was 0.181. The “glycan array binding signal (z-score)” value [13] was 0.787, the “glycan array binding signal (z-score)” value [14] was -0.583 and the “glycan array binding signal (z-score)” value [15] was 0.71. For the same binder, the “glycan array binding signal (z-score)” value [16] was 0.693, the “glycan array binding signal (z-score)” value [17] was -0.276 and the “glycan array binding signal (z-score)” value [18] was -0.377. For the same binder, the “glycan array binding signal (z-score)” value [19] was 0.238, the “glycan array binding signal (z-score)” value [20] was -0.345 and the “glycan array binding signal (z-score)” value [21] was -0.219. For the same binder, the “glycan array binding signal (z-score)” value [22] was -1.02, the “glycan array binding signal (z-score)” value [23] was -0.391 and the “glycan array binding signal (z-score)” value [24] was -0.102. For the same binder, the “glycan array binding signal (z-score)” value [25] was 0.77, the “glycan array binding signal (z-score)” value [26] was -0.707 and the “glycan array binding signal (z-score)” value [27] was -0.439. The “glycan array binding signal (z-score)” value [28] was 0.017, the “glycan array binding signal (z-score)” value [29] was -0.058 and the “glycan array binding signal (z-score)” value [30] was -0.208.
